In the experiment the test system is OVCAR-8 complex spheroid, growth inhibition. Put plainly: Anticancer human tumor OVCAR-8 cell line growth inhibition [Asc].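 As to all read-outs here: spheroids exposed to agents for 7 days before readout.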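 As to viability, T/C: percent viability relative to DMSO vehicle wells taken as 100%.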 The following applies: for viability, T/C: stronger effect = lower value. Here is the method:
Multicellular complex tumor spheroid response to apoptosis pathway targeting inhibitors Alrizomadlin, Pelcitoclax, and Dasminapant in combination with a variety of drugs and investigational agents in selected tumor cell lines
The MDM2 inhibitor alrizomadlin, the Bcl-2/Bcl-xL inhibitor pelcitoclax, and the IAPs inhibitor dasminapant were evaluated both individually and in combination with standard of care and investigational anticancer small molecules within a complex spheroid model of solid tumors. . Complex spheroids include a stromal component modeled by human endothelial cells (HUVEC) and fibroblasts modeled by human mesenchymal stem cells (MSCs). The concentration ranges selected for each drug and investigational agent were based upon clinically achievable concentrations if the clinical Cmax of the agent was known.
Compounds. The drugs and investigational agents: alrizomadlin (APG-115; NSC831270), pelcitoclax (APG-1252; NSC835773), dasminapant (APG-1387;NSC834197), TAK-243 (NSC785004), copanlisib (NSC809693), olaparib (NSC753686), talazoparib (NSC767125), cobimetinib (NSC 768068), eltanexor (KPT-8602, NSC 794443), abemaciclib (NSC 768073), sotorasib (NSC818433), adagrasib (NSC 831453), MRTX-1133 (NSC 836407), Iadademestat (ORY1001, NSC 806812), and RMC-4630 (NSC839698), were obtained from the NCI Developmental Therapeutics Program Chemical Repository. The FDA-approved anticancer drug set is available from the Developmental Therapeutics Program at https://dtp.cancer.gov/organization/dscb/obtaining/available plates.htm. […] The stock solutions were prepared in dimethyl sulfoxide (DMSO, Sigma-Aldrich, St. Louis, MO, cat. D2650) at 800-fold the tested concentration and stored at -70 degrees C prior to their use. All drugs and investigational agents were tested over a range starting from a high concentration at or near the clinical Cmax and decreasing in half-log increments. If the clinical Cmax for an agent had not been determined, the highest concentration tested was 10 microM.
The patient-derived cancer (PDC) cell lines include five colon adenocarcinomas: 186277-243-T-J2-PDC, 616215-338-R-J1-PDC, 439559-082-T-J2-PDC, 463943-066-T-J2-PDC, and 519858-162-T-J1-PDC; three pancreatic carcinomas: 323965-272-R-J2-PDC, 521955-158-R6-J3-PDC, and 521955-158-R2-J5-PDC; two uterine sarcomas: 327498-152-R-J2-PDC and 993429-296-R-J1-PDC; two rhabdomyosarcomas: 755483-174-R-J1-PDC and 772245-204-R-J1-PDC; two soft tissue sarcomas: 126254-015-R-J1-PDC and 494315-158-R-J1-PDC; two malignant fibrous histiocytomas: 317291-083-R-J1-PDC and 596521-263-R-J1-PDC; two breast carcinomas: 171881-019-R-J1-PDC and 885512-296-R-J2-PDC; and one ovarian carcinoma: 6556581-035-R-J-PDC were obtained from the NCI PDMR, (https://pdmr.cancer.gov). The established cell lines HSSY-2 synovial sarcoma (RRID:CVCL 8719), SYO-1 synovial sarcoma (RRID:CVCL_7146), MPNST malignant peripheral neural sheath tumor were obtained from the Sloan Kettering Institute. The following established cell lines were purchased from the American Type Culture Collection (ATCC, Manassas, VA), Sor the received from the NCI repository:, PANC-1 pancreatic carcinoma (CRL-1469, RRID:CVCL_0480), OVCAR-5 ovarian carcinoma (RRID:CVCL_1628), OVCAR-8 ovarian carcinoma (RRID:CVCL_1629), , MCF-7 breast carcinoma (CRL-12584, RRID:CVCL_0031), MDA-MB-231 breast carcinoma (CRL-12532, RRID:CVCL_0062), NCI-H1876 small cell lung carcinoma (CRL-5902, RRID:CVCL_1503), NCI-H510A small cell lung carcinoma (HTB-184, RRID:CVCL_1565), NCI-H1417 (CRL-5869, RRID:CVCL_1469), and NCI-H196 small cell lung carcinoma (CRL-5823, RRID:CVCL_1509). Dr. Peter Houghton (Greehey Children's Cancer Research Institute, University of Texas Health Science Center, San Antonio, TX) provided Rh-18 rhabdomyosarcoma (RRID:CVCL_1659). Pooled donor human umbilical vein endothelial cells (HUVEC, Lonza, cat. CC-2519) and human mesenchymal stem cells (hMSC, Lonza, cat. PT-2501) were purchased from Lonza (Walkersville, MD).
Cell Culture. […]

The structures appear in SMILES notation. Not every entry of the source has a single result; some have several. Only these are listed. There may be further records. Results that share an entry repeat one measurement in other runs, samples, wells, individuals or studies. Counts like (3×) count equal records among those shown.

Broadly, the viability, T/C is the ratio of treated to control. Regarding `CCN1C(C(=O)NC23CCC(C(=O)O)(CC2)CC3)C(c2cccc(Cl)c2F)C2(C(=O)Nc3cc(Cl)ccc32)C12CCCCC2` (centres undefined), the viability, T/C is, setting by setting: (compound alone 0.00949 µM) 87.9, 94.9, 88, 89, 82, 107, 80.6, 95.2, 105%; (compound alone 0.0949 µM) 92.2, 108, 96.2, 80.5, 101, 103, 88.8, 95.8, 94.9%; (compound alone 0.3 µM) 92.7, 96.9, 114, 87.7, 97, 94.4, 96.2, 108, 111%.

By IC50 is commonly meant the concentration that inhibits the measured activity by half. With `CNC(C)C(=O)NC1CN(S(=O)(=O)c2cccc(S(=O)(=O)N3CCC4CCC(C(=O)NC(c5ccccc5)c5ccccc5)N4C(=O)C(NC(=O)C(C)NC)C3)c2)CCC2CCC(C(=O)NC(c3ccccc3)c3ccccc3)N2C1=O` (centres undefined), the IC50 (OVCAR-8 complex spheroid, combination growth inhibition, compound alone, run of 11/15/2022) is < 3.16 nM and > 1 µM. Besides, the viability, T/C (compound alone 0.00316 µM) is 89.2, 84.5, 0.68, 98.5, 110, 107, 95, 102, 94.7%; the viability, T/C (compound alone 0.01 µM) was 82.1, 85.4, 103 (2×), 124, 98.2, 97.2, 107, 101%; the viability, T/C (compound alone 0.0316 µM) was 79.8, 83.7, 99.4, 98.5, 129, 110, 108 (2×), 98.6%; the viability, T/C (compound alone 0.1 µM) is 84, 96 (2×), 95.5 (2×), 113, 99.5, 94.2, 107%; the viability, T/C (compound alone 0.316 µM) is 78.8, 76.5 (2×), 81.9, 84.5, 114, 82.4, 88.4, 85.9%; the viability, T/C (compound alone 1 µM) is 66.8, 68.7, 88.7, 75.4, 102, 83.2, 83, 77.4, 84.7%.

As to `Cc1c(S(C)(=O)=O)c(-c2cc(F)cc(N3CCN(c4ccc(NS(=O)(=O)c5ccc(NC(CCN6CCC(C(=O)OCCCP(=O)(O)O)CC6)CSc6ccccc6)c(S(=O)(=O)C(F)(F)F)c5)cc4)CC3)c2)c(-c2ccc(Cl)cc2)n1C(C)C` (centres undefined), the viability, T/C (compound alone 0.316 µM) is given as 97.4, 87.8, 99.5, 93.4, 119, 92.7, 86.5% and the viability, T/C (compound alone 10 µM) was 99.4, 120, 92.8, 104, 94, 90.3, 89.5%.

Turning to `NC(=O)C(=Cn1cnc(-c2cc(C(F)(F)F)cc(C(F)(F)F)c2)n1)c1cncnc1`, the viability, T/C is given as 98.3%, 92.3%, 9.25% (compound alone 0.0949 µM) and 69.8%, 70.3%, 5.04% (compound alone 0.3 µM).

The values are drawn from PubChem BioAssay AID1963437 (Molecular Pharmacology Branch, DTP, NCI, 2024).
